According to PubChem BioAssay AID938 (National Center for Advancing Translational Sciences (NCATS), 2007):
Screen size: about 73,000 compounds; about 1,800 (2.5%) were called active. Inconclusive means that the source gave no clear call. Such entries were picked first, then a sample of the others. The call rests on the fitted dose curve; in most records, active means well fitted activation curve with a large enough effect; inconclusive means small, poorly fitted or top-dose-only effect; inactive means no such curve, though single readings can be large or run the other way. No potency is given beside an inconclusive call; the fits are too rough.
Potency means the concentration at half of the fitted maximal effect; tags describe the fitted curve by direction and shape.

Assay: qHTS Assay for Agonists of the Thyroid Stimulating Hormone Receptor: Activators of Intracellular cAMP Concentrations in Parental HEK 293; further: nearly all actives have a fitted effect of over 55% in size; on activation: % of control where 0% means no effect
Settings: parental HEK293 CNG cAMP sensor, membrane potential fluorescence; activation: at 57.1 µM (top of the series) unless noted
Outline: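 Parental HEK 293 cells stably expressing a cAMP-gated CNG channel were loaded with membrane potential dye containing 100 uM RO 20-1724 for 60 min. Compound added for 30 min; depolarization read as fluorescence intensity at 590 nm.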
For CCn1cc(C(=O)Nc2nncs2)c(=O)c2cc(F)c(N3CCN(C(=O)c4ccco4)CC3)cc21, the Potency was inconclusive [activator, single point]. For C=CCNC1=C(Cl)C(=O)N(c2ccccc2Cl)C1=O, the Potency was inconclusive [activator, partial curve]. With CCC(=O)Nc1ccc(N2CCN(C(=O)c3ccccc3C)CC2)cc1 the Potency was inconclusive [activator, single point]. In the case of CCc1nc(SCCO)c2oc3ccccc3c2n1, the “activation” value is reported as inactive: 1.86%. In the case of CCC(=O)N(Cc1cc2cc(OC)ccc2[nH]c1=O)c1ccc(C)cc1C, the Potency is reported as active: 31.6 µM. In the case of CCn1c(SCC(=O)N2CCCC2)nnc1-c1ccc(S(=O)(=O)N2CCCCCC2)cc1, the “activation” value is reported as inactive: -10.9%. For O=C(COc1ccc(F)cc1Br)N1CCc2ccccc21, the “activation” value was inactive: -6.44%. In the case of CCOc1ccc(NCc2nnc(SCC(=O)Nc3cc(C)on3)n2-c2ccc(OC)cc2)cc1, the “activation” value is reported as inactive: 0.48%. In the case of CC(C)C(OC(=O)c1cccs1)C(=O)NCc1cccs1 (centres undefined), the Potency is reported as inconclusive [activator, full curve]. With CN1CCN(C(=O)CSc2nc(-c3cccs3)cc(-c3cccs3)c2C#N)CC1 the “activation” value was inactive: 10.8%. For CN(Cc1ccco1)c1ncncc1-c1cccc(NS(C)(=O)=O)c1, the Potency was inconclusive [activator, single point]. For COc1ccc(C(=O)N2CCC[C@@]3(CCN(CC(C)C)C3)C2)cc1, the Potency was inconclusive [activator, single point]. In the case of CCCn1cc(S(=O)(=O)CC(=O)Nc2ccc(OCC)cc2)c2ccccc21, the Potency is reported as inconclusive [activator, single point]. In the case of CCC(C)(C)n1nnnc1C(c1cc2ccc(OC)cc2[nH]c1=O)N1CCc2ccccc21 (centres undefined), the Potency is reported as inconclusive [activator, partial curve]. With C=CC[C@@H]1C=C[C@H](O/N=C(\C)CCN2CCCc3nc(C)c(C)cc32)[C@H](CO)O1 the activation was inactive: -3.41% [at 11.4 µM]. In the case of Cc1ccc(C(c2nnnn2C(C)(C)C)N(Cc2ccco2)Cc2cccs2)cc1 (centres undefined), the Potency is reported as inconclusive [activator, partial curve]. In the case of COc1ccc(CNc2ccnc(-c3cccc(C#N)c3)n2)c(OC)c1, the Potency is reported as inconclusive [activator, partial curve]. In the case of O=C(Nc1cc(Cl)ccc1N1CCOCC1)c1cnccn1, the Potency is reported as inconclusive [activator, single point]. For COC(=O)c1cc(OC)c(OC)cc1NC(=O)CCc1ccc(C)o1, the Potency was inconclusive [activator, partial curve]. In the case of CSc1nc2ccccc2n1Cc1cccc(F)c1, the Potency is reported as inconclusive [activator, partial curve]. For O=C(Nc1ccc2nsnc2c1)c1cccs1, the “activation” value was inactive: 14.5%. In the case of CCN(CCCNC(=O)CC1Oc2ccc(C)cc2NC1=O)Cc1ccccc1 (centres undefined), the “activation” value is reported as inactive: 12%. With CCc1ccc2nc(SCC(=O)N(CC)CC)c(C#N)cc2c1 the Potency was inconclusive [activator, single point]. With CCN(CC)CCCNC(=O)c1ccc(-n2c(=O)c(=O)[nH]c3ccccc32)cc1 the Potency was inconclusive [activator, single point]. For O=C(COC(=O)c1cccnc1)c1ccc(Cl)cc1, the “activation” value was inactive: -1.44%. With CCCn1c(C)nc2c(N(CCN(C)C)Cc3ccccc3)nc(C)nc21 the Potency was inconclusive [activator, single point]. With CCC(C)n1c(=O)c(C(=O)Nc2ccccc2S(N)(=O)=O)c(O)c2ccccc21 (centres undefined) the Potency was inconclusive [activator, partial curve]. For C=CCSc1nc2ccccc2c(=O)n1Cc1ccco1, the activation was inactive: 7.87% [at 11.4 µM]. For Cc1noc(C)c1-c1cncnc1NC1CC1, the “activation” value was inactive: 2.82%. In the case of N=c1c(C(=O)NCc2ccc(F)cc2)cc2c(=O)n3ccccc3nc2n1CCCN1CCOCC1, the “activation” value is reported as inactive: 16.9%. In the case of CC(=O)NCCSC(=O)c1ccc(F)cc1, the Potency is reported as active: 3.16 µM. In the case of c1csc(Cn2c(-c3cccs3)nc3ccccc32)c1, the Potency is reported as inconclusive [activator, single point]. For Oc1c(C(c2ccc(F)cc2)N2CCc3ccccc3C2)sc2ncnn12 (centres undefined), the Potency was inconclusive [activator, single point]. For Cc1nc(-c2ccc(S(=O)(=O)N3CCCCCC3)cc2)cs1, the Potency was inconclusive [activator, partial curve]. With CCOC(=O)Cc1csc(NC(=O)c2ccc(S(=O)(=O)N3CCCC3)cc2)n1 the Potency was inconclusive [activator, single point]. In the case of COc1ccc(C2C(C#N)=C(N)Oc3cc(O)ccc32)cc1OC (centres undefined), the “activation” value is reported as inactive: 3.42%. For CCOC(=O)NC[C@H](Cc1ccc(OCCc2nc(-c3ccccc3)oc2C)cc1)N/C(C)=C\C(=O)c1ccc(C(F)(F)F)cc1, the “activation” value was inactive: 9.33%. With Cc1ccc(C)c(OCC(O)CN2CCCCC2C)c1 (centres undefined) the Potency was inconclusive [activator, single point]. For Cc1ccccc1-c1nc(CS(=O)(=O)CC(=O)Nc2cc(F)ccc2F)c(C)o1, the Potency was inconclusive [activator, partial curve, poor fit]. In the case of COCCn1c(SCc2ccc(C(=O)OC)o2)nc2ccccc2c1=O, the Potency is reported as inconclusive [activator, partial curve]. For CN(C)Cc1ccccc1-c1nc(NCc2cccs2)c2ccccc2n1, the Potency was inconclusive [activator, single point]. For CCC/C=C(\CCC)C(NC(=O)CCc1ccccc1)c1ccc(C(F)(F)F)cc1 (centres undefined), the Potency was inconclusive [activator, full curve, poor fit]. For CC(NC(=O)C1CCN(c2nnc(-n3cccc3)s2)CC1)C12CC3CC(CC(C3)C1)C2 (centres undefined), the “activation” value was inactive: 20.7%. For CCn1c(SCC(=O)N2CCC(C(N)=O)(N3CCCCC3)CC2)nc2ccccc2c1=O, the Potency was inconclusive [activator, full curve, poor fit]. In the case of Oc1c(Cl)cc(Cl)c(Cl)c1Cl, the Potency is reported as inconclusive [activator, partial curve, poor fit]. For CCN(CC)S(=O)(=O)c1ccc(C(=O)NCc2n[nH]c(=S)n2-c2ccccc2OC)cc1, the Potency was inconclusive [activator, single point]. With O=C(Cn1nc(C(F)F)cc1C1CC1)NCCC1=CCCCC1 the Potency was inconclusive [activator, single point]. In the case of O=C(CSc1nnc(CN2CCOCC2)n1-c1ccccc1)Nc1ccc(Cl)cc1, the Potency is reported as inconclusive [activator, single point]. With O=C1c2ccccc2C(=O)N1CCCSc1nc2ccccc2o1 the Potency was active: 3.98 µM. With N#Cc1cccc(-c2nc(Nc3ccncc3)c3ccccc3n2)c1 the “activation” value was inactive: -0.38%. With CCC(c1nnnn1CCc1ccccc1)N1CCN(c2ccc(OC)cc2)CC1 (centres undefined) the Potency was inconclusive [activator, partial curve]. For O=C(CSc1ccc2nnc(-c3ccccc3)n2n1)N1CCCCC1, the “activation” value was inactive: 3.8%. With CO[C@H]1COC(=O)C/C=C\[C@H](C)[C@@H](OC)COC(=O)[C@@H](C)COC(=O)C/C=C\[C@@H]1C the activation was inactive: -1.8% [at 11.4 µM]. In the case of CCC(CC)C(=O)NCCc1cc2cc(C)c(C)cc2[nH]c1=O, the Potency is reported as inconclusive [activator, single point]. In the case of COC(=O)[C@@]1(Cc2ccc(OC)cc2)[C@H]2c3cc(C(=O)N(C)C)n(Cc4ccc(S(C)(=O)=O)cc4)c3C[C@H]2CN1C(=O)c1ccccc1, the Potency is reported as inconclusive [activator, partial curve]. With CCN(CC)CCNC(=O)CCCCn1c(=S)[nH]c2c([nH]c3ccc(OC)cc32)c1=O the “activation” value was inactive: -5.66%. In the case of CN1CCc2nc(NC(=O)c3cccc(S(=O)(=O)N4CCc5ccccc54)c3)sc2C1, the “activation” value is reported as inactive: 16%. For S=c1[nH]c2ccc(Cl)cc2[nH]1, the Potency was inconclusive [activator, single point]. In the case of COc1ccc2c(c1)C(=O)CC(c1ccccc1F)O2 (centres undefined), the Potency is reported as inconclusive [activator, partial curve]. For COC(=O)[C@@]1(Cc2ccccc2)[C@H]2c3cc(C(=O)N4CCCC4)n(Cc4c(CO)[nH]cc(C)c4=O)c3C[C@H]2CN1C(=O)c1ccccc1, the “activation” value was inactive: 15.9%. With CCOC(=O)C1CCN(C(=O)CNC(=O)OC(C)(C)C)CC1 the Potency was inconclusive [activator, single point]. In the case of CCCNC(=O)Cc1cc(=O)[nH]c(=O)[nH]1, the Potency is reported as inconclusive [activator, single point]. For COc1ccc(Cl)cc1NC(=O)C1CCCN(c2cc(C)nc3ncnn23)C1 (centres undefined), the Potency was inconclusive [activator, single point]. In the case of CCC(C(=O)NCc1ccc(F)cc1)N(Cc1ccco1)C(=O)c1snc(C(N)=O)c1N (centres undefined), the Potency is reported as inconclusive [activator, partial curve, poor fit]. With O=C(OCc1cc2ccccc2[nH]c1=O)c1cccnc1 the Potency was inconclusive [activator, partial curve]. For CCCCn1c(CN2CCN(c3cccc(Cl)c3)CC2)nc2c1c(=O)[nH]c(=O)n2C, the Potency was inconclusive [activator, partial curve]. With CCOc1ccccc1NC(=O)N1CCCC1C(=O)Nc1ccc(-n2cnnn2)c(C)c1 (centres undefined) the “activation” value was inactive: -1.93%. For O=C(CN1CCN(c2ncc(C(F)(F)F)cc2Cl)CC1)Nc1ccc2c(c1)OCO2, the Potency was inconclusive [activator, partial curve]. With COc1ccc2c(c1)c(CC(=O)O)c(C)n2Cc1ccc(Cl)cc1 the Potency was inconclusive [activator, single point].
